Earlier results in article PMC11006913.
Some of the results follow.

Target: PITX2 L100Q (Homo sapiens) (UniProt Q99697)
Conditions: PBM; conditions not shown; double strand, one strand shown; scale: upbm affinity estimate (log intensity, higher = more binding, comparable within an allelic series)
In the case of CGTTGGCC [8-mer CGTTGGCC], the binding signal is given as 8.32.
For GAGCGGGC [8-mer GAGCGGGC], the binding signal is listed as 7.97.
For AGCATGCT [8-mer AGCATGCT], the binding signal is given as 8.39.
In the case of CGCCCGAC [8-mer CGCCCGAC], the binding signal is listed as 8.18.
For TAGATTAA [8-mer TAGATTAA], the binding signal is listed as 10.9.
In the case of GTGCGCCA [8-mer GTGCGCCA], the binding signal is listed as 7.92.
In the case of GGATTACC [8-mer GGATTACC], the binding signal is given as 11.2.
In the case of CGGGGTCC [8-mer CGGGGTCC], the binding signal is listed as 7.99.
For GGCCCCCC [8-mer GGCCCCCC], the binding signal is listed as 8.05.
In the case of CCTGCACC [8-mer CCTGCACC], the binding signal is given as 8.06.
For ATAATCCG [8-mer ATAATCCG], the binding signal is listed as 11.4.
In the case of AACCGGGC [8-mer AACCGGGC], the binding signal is given as 8.4.
For AGTTAATC [8-mer AGTTAATC], the binding signal is given as 11.
In the case of CGACGGCG [8-mer CGACGGCG], the binding signal is listed as 8.1.
For ACGGGTCC [8-mer ACGGGTCC], the binding signal is given as 8.1.
In the case of ATTAAGCC [8-mer ATTAAGCC], the binding signal is listed as 11.1.
In the case of CGCCACCC [8-mer CGCCACCC], the binding signal is given as 8.11.
For CCGGTCTC [8-mer CCGGTCTC], the binding signal is listed as 8.06.
In the case of GCGCAGAC [8-mer GCGCAGAC], the binding signal is given as 8.31.
For CAGATTAG [8-mer CAGATTAG], the binding signal is given as 10.8.
In the case of AAAGATTA [8-mer AAAGATTA], the binding signal is given as 10.9.
For GTCCCCAC [8-mer GTCCCCAC], the binding signal is given as 8.33.
For CGGCCCCC [8-mer CGGCCCCC], the binding signal is listed as 7.93.
For GATTAAGC [8-mer GATTAAGC], the binding signal is listed as 11.
For ACTAATCC [8-mer ACTAATCC], the binding signal is given as 11.7.
In the case of AAGATTAA [8-mer AAGATTAA], the binding signal is given as 11.
In the case of CAGGCCCA [8-mer CAGGCCCA], the binding signal is given as 8.47.
For CGGGACCA [8-mer CGGGACCA], the binding signal is listed as 8.26.
